Reference: the supplement of paper PMC3334620
The full ranking holds about 33,000 sequences; the median of “E-score (-0.5 to 0.5)” is about -0.054, and the highest 2% start at about 0.35. The list shows a part of the results.

Biological target: T1, Stb5 (UniProt P38699)
T1 sequence: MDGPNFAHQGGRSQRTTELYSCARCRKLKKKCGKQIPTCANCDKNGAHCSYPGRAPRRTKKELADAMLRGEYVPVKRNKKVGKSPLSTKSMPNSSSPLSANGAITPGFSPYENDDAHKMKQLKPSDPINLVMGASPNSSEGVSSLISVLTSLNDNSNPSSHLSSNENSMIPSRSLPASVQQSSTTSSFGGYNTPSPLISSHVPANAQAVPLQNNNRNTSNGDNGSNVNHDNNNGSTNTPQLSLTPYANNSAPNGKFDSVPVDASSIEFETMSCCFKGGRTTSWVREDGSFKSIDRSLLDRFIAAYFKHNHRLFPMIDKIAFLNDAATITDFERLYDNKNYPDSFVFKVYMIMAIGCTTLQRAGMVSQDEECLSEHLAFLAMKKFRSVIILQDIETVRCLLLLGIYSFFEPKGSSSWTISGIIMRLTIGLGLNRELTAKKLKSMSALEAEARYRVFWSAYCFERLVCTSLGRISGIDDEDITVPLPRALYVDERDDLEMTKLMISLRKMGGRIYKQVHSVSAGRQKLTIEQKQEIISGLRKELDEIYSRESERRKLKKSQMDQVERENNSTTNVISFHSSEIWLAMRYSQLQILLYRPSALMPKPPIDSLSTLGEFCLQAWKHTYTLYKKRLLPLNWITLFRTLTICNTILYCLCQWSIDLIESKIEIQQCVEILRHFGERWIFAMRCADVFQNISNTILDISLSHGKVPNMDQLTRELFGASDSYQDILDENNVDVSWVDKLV
Assay: PBM E-score (8-mer binding enrichment) (E-score (-0.5 to 0.5)); higher = stronger / more preferred TF binding; most listed sequences are background and not binding sites
Details: protein concentration: 200 nM; construct: GST-full length
Summary of the method: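 For each ungapped eight-base word taken together with its reverse complement, the Universal PBM Analysis Suite assigned an E-score. Binding data came from GST-tagged yeast transcription factors, applied at about 100-200 nM, on universal all-10-mer Agilent arrays made double-stranded by primer extension. Fluorescent anti-GST marked bound protein, and scans were normalised with masliner.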

| Sequence | PBM E-score |
| --- | --- |
| CCGAGAAG | 0.0415 |
| CCGACAAA | 0.353 |
| CGCTTCGC | 0.161 |
| AAGTTCAC | -0.0104 |
| CAACTCCC | 0.0133 |
| CGGTGAGC | 0.00906 |
| ATAGTGTC | 0.0257 |
| CCGCTCGA | 0.328 |
| AACCGAAC | -0.0424 |
| CGCAAGTA | 0.117 |
| CCTGTCTA | -0.145 |
| GCACTTCA | -0.0218 |
| CATCACCG | 0.251 |
| CGGATCTC | 0.103 |
| CATATAAA | 0.0235 |
| TCTGAAAA | -0.118 |
| ATGCAAAA | -0.0662 |
| GAGCCACC | 0.0335 |
| CCTCGAAC | -0.29 |
| CTCTCGGA | 0.0492 |
| CATTATGC | 0.0831 |
| AGTGAAAC | -0.22 |
| GGGACACA | -0.00402 |
| CCCATATA | 0.0651 |
| CCCATCCG | 0.129 |

| Sequence | PBM E-score |
| --- | --- |
| CATATGAC | 0.0378 |
| ATATTCTC | -0.0456 |
| GAGTTACA | -0.0771 |
| ATTTCTTG | -0.0868 |
| AAGTCCAT | 0.0307 |
| GACGCAAC | 0.132 |
| ATCCATCC | 0.109 |
| ACAAGGTC | -0.179 |
| CATCATGC | -0.0753 |
| AAGCGGAA | 0.167 |
| GTAAGCCA | -0.243 |
| ACTGACGA | -0.181 |
| AGATACTC | 0.0381 |
| AGTCTCCG | 0.264 |
| GAAAAATA | -0.088 |
| AAGGACAT | 0.0967 |
| GCTGCCAC | 0.0409 |
| GAGTACTC | -0.176 |
| GCAGTGTA | -0.117 |
| TGGTGGAA | -0.255 |
| AACACTCA | -0.109 |
| AGGAGCCA | -0.379 |
| ACAGGCCG | 0.212 |
| ATCCTTTG | -0.0992 |
| CCGCCGCG | 0.363 |

| Sequence | PBM E-score |
| --- | --- |
| ACCTTTTA | -0.103 |
| GTATGCAC | -0.0253 |
| CACTTTTC | -0.0609 |
| GATCGGCC | 0.298 |
| CCTGGATA | -0.121 |
| ATGCCCGG | 0.318 |
| AAAATCCT | 0.0168 |
| ACCAGCTC | -0.0609 |
| CGTCAACG | 0.108 |
| ACATCGCG | -0.00388 |
| TAAGTTAA | -0.0413 |
| TCGGTAAA | 0.2 |
| CCTGCCGC | 0.112 |
| GATTGTGC | -0.0187 |
| CTAATTTA | -0.0327 |
| CCTAGACG | -0.0639 |
| CACTGCAG | -0.231 |
| AGATTCGC | -0.00054 |
| ATACCACG | -0.174 |
| ATGGCGTG | -0.256 |
| CGTGTACA | -0.00441 |
| CACTTTAA | -0.0573 |
| GTAAAAGA | -0.226 |
| ACCAAAGT | -0.209 |
| TTCCTCAA | -0.217 |

| Sequence | PBM E-score |
| --- | --- |
| ACAGCTGG | -0.121 |
| CGAAGCAG | -0.0001 |
| AACCAGTG | -0.182 |
| GAAAGCGC | 0.0901 |
| GAACCTTC | -0.201 |
| CCCTCTTA | -0.167 |
| CAACGTAC | -0.237 |
| AAGGCTTG | -0.305 |
| CCAGCGGA | 0.282 |
| ACTAAATA | 0.0203 |
| CGATAGCG | 0.214 |
| ACGCATGC | -0.15 |
| CAAGCATA | -0.205 |
| AGGGGTAT | -0.0217 |
| CTATAATA | 0.178 |
| GTCGCGGA | 0.227 |
| AACATAGC | 0.0221 |
| GCATAGGC | -0.108 |
| CACATCCA | -0.132 |
| ACGCCGTA | 0.204 |
| CCAAATAC | -0.0142 |
| ACAACACT | -0.233 |
| CTCGGAAA | -0.101 |
| CTTGCAGA | -0.112 |
| GGATGTTA | 0.229 |

| Sequence | PBM E-score |
| --- | --- |
| GCCCCCCC | -0.161 |
| AATTAGCT | -0.0705 |
| AGCGCGAA | -0.0315 |
| CTGCGGAA | 0.0552 |
| GATATTCA | -0.0862 |
| AGGGTTCG | -0.163 |
| TCCTTGAA | -0.238 |
| ACGGATAT | 0.367 |
| CCAGGTCC | 0.0542 |
| TATTGACA | -0.0413 |
| ACAGCCCT | -0.157 |
| GTTATCTA | -0.00767 |
| CGACATCG | 0.227 |
| CTCTCACC | 0.0107 |
| AACACCGT | 0.472 |
| GACCAGCA | -0.115 |
| CCCGCCGA | 0.345 |
| ACATTAAG | -0.0786 |
| ACCGGTTA | 0.276 |
| GGAGGCTA | 0.0536 |
| CCCAAGGC | 0.0152 |
| GTTGGGTA | -0.192 |
| ATAATCGC | 0.136 |
| CCAAAAAG | -0.00807 |
| GTGTTATA | 0.203 |

| Sequence | PBM E-score |
| --- | --- |
| ACCACGGG | 0.0924 |
| AATTTTAC | 0.037 |
| CCTTAAAG | -0.122 |
| CCGTGGCG | 0.311 |
| CATGGCGG | 0.262 |
| ATACAGAA | -0.0271 |
| CATTTAGG | -0.0674 |
| AGCTGGTG | -0.223 |
| GCTTCGGA | 0.0899 |
| CGCGGCTC | 0.0954 |
| CCGTTCGA | 0.163 |
| CTGCAGAA | -0.0848 |
| GATTATGA | 0.0629 |
| CAAGTTCA | -0.0622 |
| CAGATGCA | -0.352 |
| AACCACGA | -0.0647 |
| CATAACCC | 0.13 |
| AGAAACAA | -0.0376 |
| CTTGCAAA | 0.00157 |
| GAATTGTA | -0.0944 |
| ATCTTCTA | -0.0591 |
| AAGGGTCA | -0.283 |
| ACGGAAGC | 0.0867 |
| CACCCTGC | -0.0155 |
| GCATTCCC | 0.0283 |

| Sequence | PBM E-score |
| --- | --- |
| TACCTCAA | -0.169 |
| CGCCAGCG | 0.115 |
| AAGGTTTA | -0.182 |
| TTGTGAAA | -0.223 |
| ACATGATC | -0.0463 |
| GAATTGCC | 0.143 |
| ATATTCCC | 0.372 |
| GCAAAGGA | -0.107 |
| ACATACCC | -0.0726 |
| ATCAACTA | -0.159 |
| CAAGAGGA | -0.316 |
| AAAGCAGA | -0.316 |
| GACCAACC | 0.0267 |
| ATGTCCGA | 0.412 |
| AGTGGACC | -0.206 |
| AATGGGGC | -0.213 |
| CTGTAACC | 0.0375 |
| CAGGGATG | -0.11 |
| CGATTTAA | 0.0153 |
| CATTAAAC | -0.17 |
| GCTCTCCC | -0.155 |
| AAAATATT | 0.114 |
